From patent US5891696A, “Compositions for cytochrome P450 biotransformation reactions” (Panvera Corporation, priority 1997, dated 1999)

Substrate: CN(C)CCC=C1c2ccccc2CCc2ccccc21
Assay: cells, lysate or membranes
Details: other: Baculosomes

B1: P450 3A4 (insect cell microsomes with NADPH-P450 reductase) (Homo sapiens) (protein)
chain: MALIPDLAMETWLLLAVSLVLLYLYGTHSHGLFKKLGIPGPTPLPFLGNILSYHKGFCMFDMECHKKYGKVWGFYDGQQPVLAITDPDMIKTVLVKECYSVFTNRRPFGPVGFMKSAISIAEDEEWKRLRSLLSPTFTSGKLKEMVPIIAQYGDVLVRNLRREAETGKPVTLKDVFGAYSMDVITSTSFGVNIDSLNNPQDPFVENTKKLLRFDFLDPFFLSITVFPFLIPILEVLNICVFPREVTNFLRKSVKRMKESRLEDTQKHRVDFLQLMIDSQNSKETESHKALSDLELVAQSIIFIFAGYETTSSVLSFIMYELATHPDVQQKLQEEIDAVLPNKAPPTYDTVLQMEYLDMVVNETLRLFPIAMRLERVCKKDVEINGMFIPKGVVVMIPSYALHRDPKYWTEPEKFLPERFSKKNKDNIDPYIYTPFGSGPRNCIGMRFALMNMKLALIRVLQNFSFKPCKETQIPLKLSLGGLLQPEKPVVLKVESRDGTVSGA
- Km: 56 µM
